Out of some 340,000 compounds screened, about 170 (0.05%) were called active. About 26% were inconclusive and are not listed. Calls come from the whole dose curve; as a rule, active = well fitted inhibition curve with a large enough effect in the signal ratio, with a control signal flat (not every such curve was filed as active); inconclusive = small, poorly fitted or top-dose-only effect, or effect the other way, or a change in a side signal; inactive = flat fitted curve, though single readings scatter; the % refers to the signal ratio. Only a part is listed here, and it is no random draw.
Experiment: qHTS Assay to Find Inhibitors of Chronic Active B-Cell Receptor Signaling;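 for activity change, negative = inhibition: plate controls were basal doxycycline-induced cells for no effect and cells given 10 µM MG132 for full effect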
Conditions: ABC-DLBCL IkBa-CBG/CBR reporter, luminescence ratio (green luciferase fused to IkBa over red control in TMD8 lymphoma cells), 4 h; series mostly up to 46.1 µM; activity change, negative = inhibition: at the top concentration
In short: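 Compounds up to 46 uM were incubated four hours with TMD8 cells whose green CBG68 luciferase is fused to IkappaBalpha; red CBR luminescence normalised the signal, and concentration-effect curves were fitted to fusion, red and ratio data.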
Potency is the fitted concentration of half-maximal effect.

| SMILES | Potency | activity change, negative = inhibition |
| --- | --- | --- |
| C/C(CC(=O)Nc1ccc(Cl)cc1C(F)(F)F)=N\NC(N)=S | active: 11.2 µM |  |
| O=C(NCc1nc2ccccc2[nH]1)C1=C[C@H](c2ccc(Br)cc2)C[C@H](OCc2ccc(CO)cc2)O1 |  | inactive: -11.5% |
| O=C1N[C@@H](Cc2ccccc2)COC(=O)[C@@H](Cc2ccc(F)cc2)CC/C=C/C[C@H]1CC(=O)N(CCO)Cc1ccccc1 |  | inactive: -1.43% |
| Cc1ccc(CNC(=O)CSc2nc3n[nH]c(C)c3c(=N)n2-c2cccc(C)c2)cc1 |  | inactive: 11.4% |
| CC(C)[C@H](NC(=O)[C@@H]1CSCN1C(=O)OC(C)(C)C)C(=O)NCC1CCC(C(=O)O)CC1 (some centres undefined) |  | inactive: 3.43% |
| COc1ccccc1N1CCN(C(=O)C2CCCN(S(=O)(=O)c3ccc4c(c3)oc(=O)n4C)C2)CC1 (centres undefined) |  | inactive: -19.9% |
| Cc1ccc2[nH]c3c(=O)n(CCCN4CCN(C)CC4)cnc3c2c1 |  | inactive: -12.6% |
| O=C1/C(=C\c2cccnc2)SC(=S)N1c1ccc(F)cc1 |  | inactive: 1.83% |
| O=C(CCC1CCCCC1)NCCN1C2=NC[C@H](Cc3ccccc3)N2C[C@H]1Cc1ccc(O)cc1 |  | inactive: 2.65% |
| C=CCC[C@@H](Cc1ccc(F)cc1)C(=O)OC[C@@H](Cc1c[nH]c2ccccc12)NC(=O)[C@@H](CC=C)CC(=O)N(CCO)Cc1ccccc1 |  | inactive: -2.53% |
| C[C@@H](NC(=O)c1[nH]cnc1C(=O)Nc1ccc(Cl)cc1)c1ccccc1 |  | inactive: 11% |
| COc1ccc2c(c1)OC[C@H]1[C@H]2N2C(=O)CNC(=O)[C@@]2(C)[C@H]1c1ccccc1 |  | inactive: -3.17% |
| CN1CCN(C(=O)/C=C/c2ccc(Cl)cc2)CC1 |  | inactive: -2.23% |
| O=C(O)COc1c(Cl)cc(/C=C2/NC(=O)NC2=O)cc1Br |  | inactive: -3.48% |
| O=C(NCc1ccccc1)c1cc2ccccc2o1 |  | inactive: -0.125% |
| CC(C)(C)OC(=O)C[C@H]1C/C=C\C[C@@H](CC(=O)N(CCO)Cc2ccccc2)C(=O)NC[C@H](c2ccccc2)OC1=O |  | inactive: -2.09% |
| C[C@H]1COC(=O)[C@H](CC(=O)OC(C)(C)C)C/C=C\C[C@@H](CC(=O)N[C@H](CO)Cc2ccccc2)C(=O)N1 |  | inactive: 2.36% |
| COC(C[C@H]1O[C@@H]1[C@@H](O)COCc1ccccc1)OC |  | inactive: 2.83% |
| C=CC[C@@H](CC(=O)N[C@@H](CO)Cc1ccccc1)C(=O)N[C@H](COC(=O)[C@@H](CC=C)Cc1ccc(F)cc1)Cc1c[nH]c2ccccc12 |  | inactive: -1.85% |
| CC(C)Oc1ccc2c(=O)c(-c3ccccc3)coc2c1 |  | inactive: -20.4% |
| CC(=O)Nc1nc2ccc(-c3nc4ccccc4o3)cc2s1 | active: 14.6 µM |  |
| C#CCNC(=O)C1=C[C@H](c2coc3ccccc3c2=O)[C@@H](CCCO)[C@H](OCC)O1 |  | inactive: 19.4% |

| SMILES | Potency | activity change, negative = inhibition |
| --- | --- | --- |
| Cc1cccc([C@H](NC(=O)OC(C)(C)C)C(=O)OC(C)(C)C)c1 |  | inactive: -0.92% |
| CCN(CC)c1ccc(NC(=O)CN2CCN(S(=O)(=O)c3cc(Cl)ccc3OC)CC2)cc1 |  | inactive: -29.5% |
| CCc1nn2c(N)c(/C=C3\C=Nc4ccccc43)c(=O)nc2s1 |  | inactive: -0.478% |
| C[C@@H]1COC(=O)[C@@H](CC(=O)OC(C)(C)C)C/C=C\C[C@H](CC(=O)NCCO)C(=O)N1 |  | inactive: 1.14% |
| C[C@H](CO)N1C[C@H](C)[C@@H](CN(C)S(=O)(=O)c2ccc(F)cc2)Oc2ccc(NC(=O)Cc3cn(C)c4ccccc34)cc2C1=O |  | inactive: -0.95% |
| CCN1C(=O)[C@H]2[C@@H](c3ccc(-c4ccc(OC)cc4)c(OC)c3)N3CCCC[C@@]3(C(=O)OC)[C@H]2C1=O |  | inactive: 7.68% |
| Cc1onc(-c2ccccc2)c1-c1nc2cc(Cl)ccc2c(=O)o1 | active: 12.6 µM |  |
| Cc1nn(CCC(=O)NNC(=S)NCC(C)C)c(C)c1Br | active: 16.4 µM |  |
| CCc1ccc(/C=C2/SC(=S)N(CCCC(=O)Nc3ccccc3C(=O)O)C2=O)cc1 |  | inactive: -8.06% |
| CN1CCN(C(=O)CCCOc2cc(=O)n(C)c3ccccc23)CC1 | active: 25.9 µM |  |
| O=C(O)C1CCCCC1C(=O)NCCc1ccccc1 (centres undefined) |  | inactive: 17.6% |
| O=C(C[C@H]1C/C=C\CC[C@@H](Cc2ccc(F)cc2)C(=O)OC[C@H]2CCCN2C1=O)N[C@@H](CO)Cc1ccccc1 |  | inactive: -0.609% |
| C=CC[C@@H](CC(=O)N[C@@H](CO)Cc1ccccc1)C(=O)N[C@@H](COC(=O)[C@@H](CC=C)Cc1ccc(F)cc1)Cc1c[nH]c2ccccc12 |  | inactive: -2.33% |
| O=C(Nc1ccc(F)c(F)c1)c1ccc(F)c(S(=O)(=O)N2CCC3(CC2)OCCO3)c1 |  | inactive: 0.232% |
| CCN1C(N(C)CCc2cccs2)=N[C@@H](c2ccccc2)C(C(=O)OC)=C1C |  | inactive: 10.7% |
| CC(C)(C)OC(=O)C[C@@H]1C/C=C\C[C@H](CC(=O)N[C@H](CO)Cc2ccccc2)C(=O)N2CCC[C@H]2COC1=O |  | inactive: 1.62% |
| O=C(Cc1ccc(-n2c(=O)c3ccccc3n(Cc3ccc(F)cc3)c2=O)cc1)NCC1CCCO1 (centres undefined) | active: 8.2 µM |  |
| C[C@@H](NC(=O)c1nc[nH]c1C(=O)NCCCCCNC(=O)OC(C)(C)C)c1ccccc1 |  | inactive: -5.71% |
| O=C(N/C(=C/c1cccs1)C(=O)N1CCOCC1)c1ccco1 |  | inactive: 2.17% |
| C[C@H](NC(=O)C1(c2ccccc2)CCN(C(=O)[C@H]2CSCN2C(=O)OC(C)(C)C)CC1)C(=O)O |  | inactive: -0.658% |
| COc1cc(N)c(Cl)cc1C(=O)N[C@H]1CCN(CCCOc2ccc(F)cc2)C[C@H]1OC |  | inactive: -19% |
| COc1ccc(C(=O)OCC#CCSc2nnc(-c3cccc4ccccc34)o2)cc1 |  | inactive: 10.8% |

| SMILES | Potency | activity change, negative = inhibition |
| --- | --- | --- |
| O=C(NCC1CCCO1)/C(=C\c1ccc(Cl)cc1)NC(=O)c1ccccc1 (centres undefined) |  | inactive: -0.198% |
| O=C(Nc1cccc(Cl)c1Cl)c1cc(S(=O)(=O)NCCc2ccccc2)ccc1F |  | inactive: -0.223% |
| CC1(C)O[C@@H]2C[C@H]3[C@@H]4C[C@H](F)C5=CC(=O)C=C[C@]5(C)[C@H]4[C@@H](O)C[C@]3(C)[C@]2(C(=O)CO)O1 |  | inactive: -22.5% |
| COc1cc(/C=C(\C#N)c2nc3ccccc3[nH]2)ccc1OC(=O)c1ccco1 |  | inactive: -0.0793% |
| CCCC/C(O)=C/c1nc2ccccc2[nH]c1=O | active: 14.6 µM |  |
| Oc1cccc2c(-c3nn[nH]n3)ccnc12 |  | inactive: 8.59% |
| COC(C[C@@H]1O[C@@H]1[C@H](O)[C@H](C)OCc1ccccc1)OC |  | inactive: 1.28% |
| C=CCC[C@@H](Cc1ccc(F)cc1)C(=O)OC[C@H](Cc1c[nH]c2ccccc12)NC(=O)[C@@H](CC=C)CC(=O)N[C@@H](CO)Cc1ccccc1 |  | inactive: -2.94% |
| Cc1nc2nc[nH]n2c(=O)c1NC(=O)CC12CC3CC(CC(C3)C1)C2 |  | inactive: 0.589% |
| Cc1cccc(N2CCN(S(=O)(=O)c3c(C)[nH]c(=O)[nH]c3=O)CC2)c1C |  | inactive: 17% |
| CN(Cc1ccco1)c1ncnc2ccc(-c3ccc4c(ccn4C)c3)cc12 | active: 6.51 µM |  |
| COc1ccc(-c2cc(=O)c3c(OC)c(OC)c(OC)c(OC)c3o2)cc1OC |  | inactive: -11.9% |
| C[C@H]1COC(=O)[C@@H](Cc2ccc(F)cc2)C/C=C\C[C@H](CC(=O)NCCO)C(=O)N1 |  | inactive: -1.89% |
| COc1ccccc1NC(=O)CCN1C(=O)/C(=C/c2cc(OC)c(OC)c(OC)c2)SC1=S |  | inactive: 2.22% |
| C[C@H]1CN([C@@H](C)CO)C(=O)c2cccc(NC(=O)C3CC3)c2O[C@H]1CN(C)CC1CCCCC1 |  | inactive: 1.23% |
| Cc1[nH][nH]c(=O)c1C(c1ccccc1[N+](=O)[O-])C(C#N)C#N (centres undefined) |  | inactive: 9.01% |
| NC1=NC[C@H](Cc2ccc(O)cc2)N1CCc1cc(C(F)(F)F)cc(C(F)(F)F)c1 |  | inactive: -4.49% |
| OCC[C@@H]1C[C@H](O)[C@@H](O)[C@@]2(OCc3ccccc32)O1 |  | inactive: -1.61% |
| O=C1NC[C@H](c2ccccc2)OC(=O)[C@H](Cc2ccc(F)cc2)C/C=C\C[C@@H]1CC(=O)N(CCO)Cc1ccccc1 |  | inactive: -0.26% |
| CCC(=O)N1c2ccccc2C(N(C(C)=O)c2ccccc2)CC1C (centres undefined) |  | inactive: -9.96% |

— PubChem BioAssay AID493014 (National Center for Advancing Translational Sciences (NCATS), 2011)
